Experimental data as given in ChEMBL document CHEMBL1201862, “PubChem BioAssay data set” (2004).
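Tested at 5 concentrations; 48 h exposure; 96-well plates; endpoints linearly interpolated, else capped at highest concentration. GI50: concentration for 50% inhibition of growth.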 The source made the active and inactive calls. Cut-off read from the data, not from the text of the source: active = GI50 up to about 1.1 µM and inactive = higher.

Key:
Assay in all cases: DTP human tumour cell line panel, 48 h
NCI-H522 = tested on: NCI-H522
HL-60 = tested on: HL-60
TK-10 = tested on: TK-10
LOX IMVI = tested on: LOX IMVI
OVCAR-5 = tested on: OVCAR-5
UO-31 = tested on: UO-31
MCF7 = tested on: MCF7
HCT-116 = tested on: HCT-116
Hs-578T = tested on: Hs-578T
EKVX = tested on: EKVX
CCRF-CEM = tested on: CCRF-CEM
CAKI-1 = tested on: CAKI-1
K562 = tested on: K562
RPMI-8226 = tested on: RPMI-8226
SK-MEL-5 = tested on: SK-MEL-5
MOLT-4 = tested on: MOLT-4
T47D = tested on: T47D
MDA-MB-435 = tested on: MDA-MB-435
NCI-H460 = tested on: NCI-H460
OVCAR-4 = tested on: OVCAR-4

Structure (SMILES): CCOC(=O)Oc1cc2c(c(OC)c1OC)-c1ccc(SC)c(=O)cc1[C@@H](NC(C)=O)CC2
- GI50 (NCI-H522): active: 21.1 nM
- GI50 (HL-60): active: 7.11 nM
- GI50 (TK-10): inactive: > 10000 nM
- GI50 (LOX IMVI): active: 7.33 nM
- GI50 (OVCAR-5): active: 479 nM
- GI50 (UO-31): inactive: 4690 nM
- GI50 (MCF7): active: 5.93 nM
- GI50 (HCT-116): active: 6.03 nM
- GI50 (Hs-578T): active: 2.1 nM
- GI50 (EKVX): inactive: 1640 nM
- GI50 (CCRF-CEM): active: 6.52 nM
- GI50 (CAKI-1): active: 927 nM
- GI50 (K562): active: 5.56 nM
- GI50 (RPMI-8226): active: 3.69 nM
- GI50 (SK-MEL-5): active: 4.51 nM
- GI50 (MOLT-4): active: 11.4 nM
- GI50 (T47D): inactive: 10000 nM
- GI50 (MDA-MB-435): active: 1.95 nM
- GI50 (NCI-H460): active: 17.5 nM
- GI50 (OVCAR-4): inactive: 2780 nM
